Measured values published in PubChem BioAssay AID2147 (National Center for Advancing Translational Sciences (NCATS), 2009).
Among all 230,000 compounds or so, about 3,600 (1.6%) were called active. This list was built around the results that the source calls inconclusive (neither active nor inactive); the mix of calls is not that of the screen. Calls come from the whole dose curve; as a rule, active = well fitted inhibition curve with a large enough effect (not every such curve was filed as active); inconclusive = small, poorly fitted or top-dose-only effect, or another doubt; inactive = no such curve, though single readings can be large or run the other way. Potencies beside an inconclusive call are fits to weak or partial responses and may not hold up.

Target: Lysine-specific demethylase 4E (Homo sapiens) (UniProt B2RXH2)
Sequence of UniProt B2RXH2 (B2RXH2 whole entry, looked up, the tested form may be a part): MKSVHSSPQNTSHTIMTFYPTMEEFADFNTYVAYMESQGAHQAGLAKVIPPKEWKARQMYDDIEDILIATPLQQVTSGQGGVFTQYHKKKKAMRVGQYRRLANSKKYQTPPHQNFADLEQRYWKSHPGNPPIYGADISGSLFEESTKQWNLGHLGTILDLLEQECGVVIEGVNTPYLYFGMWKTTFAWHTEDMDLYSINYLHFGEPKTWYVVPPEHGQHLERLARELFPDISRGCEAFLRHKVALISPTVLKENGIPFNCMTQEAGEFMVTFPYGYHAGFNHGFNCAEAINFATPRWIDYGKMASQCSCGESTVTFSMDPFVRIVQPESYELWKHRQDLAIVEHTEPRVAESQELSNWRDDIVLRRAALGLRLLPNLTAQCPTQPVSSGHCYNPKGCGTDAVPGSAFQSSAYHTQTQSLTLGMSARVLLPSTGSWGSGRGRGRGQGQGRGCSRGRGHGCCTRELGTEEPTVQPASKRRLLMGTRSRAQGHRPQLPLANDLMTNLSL
Experiment: qHTS Assay for Inhibitors of Human Jumonji Domain Containing 2E (JMJD2E)
Conditions: JMJD2E catalytic domain, FDH-coupled NADH fluorescence (FDH is formaldehyde dehydrogenase); series mostly up to 57.1 µM
Note: nearly all actives have a fitted effect of over 50% in size.
Potency is the fitted concentration of half-maximal effect; tags give direction and shape of the fitted curve.

SMILES | Potency
CCN(CC)S(=O)(=O)c1ccc(N/N=C/c2cc(OC)c(OC)cc2OC)nc1 | inconclusive: 28.2 µM [inhibitor, partial curve]
Cc1ccc(C(=O)N2CCN(C(=O)c3ccccc3)C2c2ccc(N(C)C)cc2)cc1 (stereo not given) | inconclusive: 39.8 µM [inhibitor, single point]
Cn1cccc1/C=C1\CC(C(C)(C)C)C/C(=C\c2cccn2C)C1=O (stereo not given) | inactive
CCCCCc1ccc(-c2ccc(/C=C/C(N)=O)cc2)nc1 | inconclusive: 3.98 µM [inhibitor, full curve]
CCC(C)NC(=O)C1c2cc(OC)c(OC)cc2C(=O)N(C)C1c1cccs1 (stereo not given) | inconclusive: 39.8 µM [inhibitor, single point]
COc1ccc2c(c1)C(=O)CC(O)(C(F)F)O2 (stereo not given) | inconclusive: 28.2 µM [inhibitor, partial curve]
CN(C)c1ccc(-c2cccc(C3CC=CC4C3C(=O)N(Cc3ccccc3)C4c3ccc4ccccc4c3)c2)cc1 (stereo not given) | inconclusive: 28.2 µM [inhibitor, partial curve]
Fc1ccc(-n2[nH]nnc2=S)cc1N1CCCC1 | inconclusive: 25.1 µM [inhibitor, single point]
Cc1ccc(Br)cc1S(=O)(=O)N1CCN(c2ccccc2)CC1 | inactive
O=C(c1ccccc1)N(Cc1ccc(F)cc1)C1CCS(=O)(=O)C1 (stereo not given) | inactive
CCCNC(=O)c1ccccc1NC(=O)C1COc2ccccc2O1 (stereo not given) | inconclusive: 39.8 µM [inhibitor, single point]
CCCC(=O)Nc1nc2n(n1)C(c1ccccc1)CC(=O)N2 (stereo not given) | inactive
COc1ccc(C(C)=O)cc1COC(=O)c1c(C)noc1C | inactive
O=C(c1ccc2nc(N3CCCCC3)sc2c1)N1CCN(c2ccccn2)CC1 | inconclusive: 11.2 µM [inhibitor, partial curve]
Cc1ccc(S(=O)(=O)NCC(=O)N/N=C/c2ccccc2O)cc1 | active: 25.1 µM
CN1CCN(C(=O)CCN2C(=O)S/C(=C/c3ccc(Cl)cc3)C2=O)CC1 | inconclusive: 39.8 µM [inhibitor, single point]
COc1cc(C(=O)NC(=S)Nc2ccc(N3CCCC3)cc2)cc(OC)c1OC | inconclusive: 25.1 µM [inhibitor, partial curve]
COc1ccc2nc(SCC(=O)Nc3ccc(S(=O)(=O)Nc4nccc(C)n4)cc3)[nH]c2c1 | inactive
CCOCCCNCc1c(Cl)cccc1Cl | inconclusive: 35.5 µM [inhibitor, single point]
CCOc1cc2[nH]c(=O)n(Cc3ccc(C(=O)NCCCN4CCCC4=O)cc3)c(=O)c2cc1OCC | inconclusive: 31.6 µM [inhibitor, partial curve]
COc1ccc(C2Nc3ccccc3C(=O)N2c2ccccc2)cc1CSc1ccccn1 (stereo not given) | inconclusive: 28.2 µM [inhibitor, partial curve]
CN1CCc2c(sc3c2c(=O)n(-c2ccccc2)c2nnc(SCc4ccc(Cl)cc4)n32)C1 | inconclusive: 28.2 µM [inhibitor, partial curve]
O=C(Nc1nc(-c2ccc(Cl)s2)cs1)c1ccccc1 | inconclusive: 39.8 µM [inhibitor, single point]

SMILES | Potency
CCCc1nc2ccc([N+](=O)[O-])cc2[nH]1 | inconclusive: 39.8 µM [inhibitor, single point]
CC(C)N(Cc1nccn1C)C(=O)CC1C(=O)NCCN1Cc1ccccc1C(F)(F)F (stereo not given) | inconclusive: 31.6 µM [inhibitor, single point]
COCCCNC(=O)c1ccc(CNS(=O)(=O)c2ccc(NC(C)=O)cc2)cc1 | inconclusive: 35.5 µM [inhibitor, single point]
COC(=O)c1cnn2c(C(F)(F)F)cc(-c3ccc(F)cc3)nc12 | inactive
CCC(C)NC(=O)c1ccccc1NC(=O)c1ccc(CSc2ccc(C)cc2)cc1 (stereo not given) | inconclusive: 35.5 µM [inhibitor, single point]
COc1ccc2nc(C)c(C(N)=O)cc2c1 | inconclusive: 28.2 µM [inhibitor, partial curve]
CC1(C)Cc2c(C#N)c(N)sc(=S)c2CO1 | inconclusive: 28.2 µM [inhibitor, single point]
C=CCSc1nnc(CCCCCN2C(=O)c3cccc4cccc(c34)C2=O)o1 | inconclusive: 31.6 µM [inhibitor, partial curve]
Cc1ccc(C)c(S(=O)(=O)N2CCN(Cc3ccc(O)c4ncccc34)CC2)c1 | active: 3.55 µM
O=C(CCCN1C(=O)/C(=C\c2cccs2)SC1=S)Nc1ccc(C(=O)O)cc1 | inactive
Cn1c(=O)c(=O)n(C)c2cc(S(=O)(=O)NCCc3ccccc3)ccc21 | inconclusive: 39.8 µM [inhibitor, single point]
NC(=O)C1CCN(C(=S)c2ccc(-c3ccc(Br)cc3)o2)CC1 | inactive
Cc1nnc(-c2ccccc2)c(=O)n1/N=C/c1c(O)ccc2ccccc12 | inconclusive: 35.5 µM [inhibitor, single point]
N#Cc1nc(-c2ccccc2Cl)oc1N1CCCCC1 | inconclusive: 35.5 µM [inhibitor, partial curve]
c1csc(C(c2nnnn2C2CCCCC2)N2CCCC3(CCCCC3)C2)c1 (stereo not given) | inactive
COc1cccc(C2=CC(c3ccc(N(C)C)cc3)n3ncnc3N2)c1 (stereo not given) | inconclusive: 25.1 µM [inhibitor, single point]
CC(C)c1[nH]c(=O)c(C#N)c2c1COC(C)(C)C2 | inconclusive: 28.2 µM [inhibitor, partial curve]
COc1cccc(NC(=O)Nc2ccc(Br)cn2)c1 | inactive
O=P(O)(CN1CCCCCC1)C1Cc2ccccc2C1 | inconclusive: 35.5 µM [inhibitor, single point]
N#CC1=C(SCC(=O)c2ccc(Cl)cc2)NC2=C(C(=O)CCC2)C1c1ccco1 (stereo not given) | inactive
O=C(NCCC(c1ccccc1)c1ccccc1)c1cnc2sccn2c1=O | inconclusive: 35.5 µM [inhibitor, partial curve]
CCOC(=O)c1cccc(N/C=C/C(=O)c2ccc(OC)c(OC)c2)c1 | inconclusive: 39.8 µM [inhibitor, single point]
